The results in this text go back to paper PMC7706265.

The target of assay [1] is T1, 3xFLAG-tagged ATF7IP dFNIII mutant (transiently expressed in HEK293T cells) (mouse) (UniProt Q7TT18).
T1 sequence: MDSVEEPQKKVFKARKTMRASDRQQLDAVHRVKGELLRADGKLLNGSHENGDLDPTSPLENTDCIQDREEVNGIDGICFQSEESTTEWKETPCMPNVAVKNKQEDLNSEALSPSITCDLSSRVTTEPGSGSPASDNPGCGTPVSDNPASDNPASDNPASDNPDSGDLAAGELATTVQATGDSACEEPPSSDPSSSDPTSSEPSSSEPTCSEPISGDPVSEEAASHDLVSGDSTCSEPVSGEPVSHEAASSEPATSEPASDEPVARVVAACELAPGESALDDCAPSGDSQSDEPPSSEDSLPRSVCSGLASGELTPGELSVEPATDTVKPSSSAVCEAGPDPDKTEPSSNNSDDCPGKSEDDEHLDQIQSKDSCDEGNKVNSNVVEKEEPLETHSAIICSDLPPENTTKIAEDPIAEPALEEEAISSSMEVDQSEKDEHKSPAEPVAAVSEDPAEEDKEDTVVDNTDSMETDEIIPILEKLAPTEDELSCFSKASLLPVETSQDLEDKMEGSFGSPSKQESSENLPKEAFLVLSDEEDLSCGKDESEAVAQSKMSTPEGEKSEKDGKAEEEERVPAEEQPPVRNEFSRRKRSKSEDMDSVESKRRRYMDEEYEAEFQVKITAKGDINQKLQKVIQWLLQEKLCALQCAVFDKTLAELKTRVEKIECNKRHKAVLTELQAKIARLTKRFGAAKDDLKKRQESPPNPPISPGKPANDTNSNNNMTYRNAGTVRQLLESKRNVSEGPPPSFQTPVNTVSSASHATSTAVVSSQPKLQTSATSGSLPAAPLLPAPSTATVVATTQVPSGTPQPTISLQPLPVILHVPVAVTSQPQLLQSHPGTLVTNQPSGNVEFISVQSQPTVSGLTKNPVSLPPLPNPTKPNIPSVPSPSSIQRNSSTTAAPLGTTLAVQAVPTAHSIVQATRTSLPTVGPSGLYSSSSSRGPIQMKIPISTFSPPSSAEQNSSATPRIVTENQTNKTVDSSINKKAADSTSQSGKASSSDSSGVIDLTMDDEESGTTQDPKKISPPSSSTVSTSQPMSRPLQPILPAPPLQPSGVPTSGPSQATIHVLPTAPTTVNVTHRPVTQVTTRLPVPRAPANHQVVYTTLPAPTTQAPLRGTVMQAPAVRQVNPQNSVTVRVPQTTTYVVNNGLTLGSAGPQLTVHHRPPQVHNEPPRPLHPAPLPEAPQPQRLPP
As to the kind of experiment: co-IP; HEK293T cells transiently co-transfected with 3xFLAG-ATF7IP (WT or dFNIII) and V5-tagged proteins; precipitated with anti-FLAG M2 affinity gel, 4 °C; western blot; which lysis buffer was used is not said.

Assay [2] deals with T2, 3xFLAG-tagged ATF7IP WT (transiently expressed in HEK293T cells) (mouse) (UniProt Q7TT18).
T2 sequence: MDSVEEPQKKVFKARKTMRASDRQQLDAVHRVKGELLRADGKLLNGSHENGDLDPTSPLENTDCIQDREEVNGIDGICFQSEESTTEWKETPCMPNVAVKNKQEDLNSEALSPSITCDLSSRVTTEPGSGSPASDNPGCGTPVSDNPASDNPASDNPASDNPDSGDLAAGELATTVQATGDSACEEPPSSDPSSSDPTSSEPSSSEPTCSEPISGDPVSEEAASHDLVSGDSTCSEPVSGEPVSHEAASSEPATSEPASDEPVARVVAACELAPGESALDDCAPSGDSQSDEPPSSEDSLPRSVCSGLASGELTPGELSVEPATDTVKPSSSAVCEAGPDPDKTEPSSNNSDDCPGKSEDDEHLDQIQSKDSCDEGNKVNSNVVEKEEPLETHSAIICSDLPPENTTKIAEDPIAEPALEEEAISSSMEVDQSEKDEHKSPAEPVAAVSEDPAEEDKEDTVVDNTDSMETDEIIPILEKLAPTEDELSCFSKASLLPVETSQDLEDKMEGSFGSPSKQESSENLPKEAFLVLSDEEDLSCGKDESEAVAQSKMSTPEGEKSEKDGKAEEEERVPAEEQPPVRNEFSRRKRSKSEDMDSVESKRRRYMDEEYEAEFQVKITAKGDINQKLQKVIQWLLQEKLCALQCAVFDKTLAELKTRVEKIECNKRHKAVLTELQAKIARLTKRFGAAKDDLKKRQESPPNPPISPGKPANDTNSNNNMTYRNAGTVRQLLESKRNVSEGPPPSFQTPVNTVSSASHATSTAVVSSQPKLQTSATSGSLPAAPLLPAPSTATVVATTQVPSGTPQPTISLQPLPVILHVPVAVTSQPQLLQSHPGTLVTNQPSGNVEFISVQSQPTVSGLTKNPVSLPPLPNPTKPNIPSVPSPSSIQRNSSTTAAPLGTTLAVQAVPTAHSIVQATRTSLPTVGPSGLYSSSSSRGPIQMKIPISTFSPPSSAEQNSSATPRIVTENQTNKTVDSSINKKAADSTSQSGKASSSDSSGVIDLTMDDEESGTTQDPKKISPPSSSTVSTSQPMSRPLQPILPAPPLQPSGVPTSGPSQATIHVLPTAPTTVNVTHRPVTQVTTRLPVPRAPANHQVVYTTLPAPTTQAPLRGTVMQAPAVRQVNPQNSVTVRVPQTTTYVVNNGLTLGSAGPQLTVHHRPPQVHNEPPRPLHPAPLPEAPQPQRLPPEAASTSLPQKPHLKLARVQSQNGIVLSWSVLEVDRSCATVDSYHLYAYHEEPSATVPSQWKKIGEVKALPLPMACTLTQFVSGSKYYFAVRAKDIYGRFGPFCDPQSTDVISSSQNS
Described as above.

The target of assay [3] is T3, GST-tagged FNIII domain of mouse ATF7IP (mouse) (UniProt Q7TT18).
T3 sequence: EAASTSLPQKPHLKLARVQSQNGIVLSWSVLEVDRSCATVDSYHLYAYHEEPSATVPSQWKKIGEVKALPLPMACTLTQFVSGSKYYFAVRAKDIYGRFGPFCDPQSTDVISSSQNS
As to the kind of experiment: pull-down; recombinant GST or GST-FNIII domain with lysates of HEK293T cells transiently transfected with V5-ZMYM2 WT or FAM1&2 Mut; pulled-down samples analysed by western blot; only the target purified. (In western blotting, separated proteins are transferred to a membrane and probed.)

These are yes or no findings as the source states them, for the method shown. In cells and extracts the contact can be indirect. Some results given as binding are weak or reduced against the parent protein; the word gives no strength. Sequences can lack the tags named with a protein.

B1: V5-tagged mouse ZMYM2 WT (protein, UniProt Q9CU65 1-1376)
chain: MDTSSVGTLELTDQTPVLLGSTAMATSLTNVGNSFSGPPNPLVSRSSKFQNSSVEDDDDVVFIEPVQPPPSSAPLVADQRPITFTSSKNEELQGNDPKILPSSKELAPQKGSVSETIVIDDEEDMETNQGQEKSSSNFIERRPSETKNRTNDVDFSSSTFSRSKVNAGVSNSGITTEPDSEIQIANVTTLETGVSSVSDGQLESTDGRDMNLMITHVTSLHNTSLGDGSNGLQSSNFGVNIQTYTPSLTSQTKAGVGPFNPGRMNVAGDVFQNGESAPHHNPDSWISQSASFPRNQKQQGVDSLSPVASLPKQIFQPSNQQPTKPVKVTCANCKKPLQKGQTAYQRKGSAHLFCSTTCLSSFSHKPAPKKLCVMCKKDITTMKGTIVAQVDSSESFQEFCSTSCLSLYEDKQSPAKGALNKSRCTICGKLTEIRHEVSFKNMTHKLCSDHCFNRYRMANGLIMNCCEQCGEYLPSKGAGNNVLVVDGQQKRFCCQSCVTEYKQVGSHPSFLKEVRDHMQDSFLMQPEKYGKLTTCTGCRTQCRFFDMTQCIGPNGYMEPYCSTACMNSHKTKYAKSQSLGIICHFCKRNSLPQYQATMPDGKLYNFCNSSCVAKFQALSMQSSPNGQFVAPSDIQLKCNYCKNSFCSKPEILEWENKVHQFCSKTCSDDYKKLHCIVTYCEYCQEEKTLHETVNFSGVKRPFCSEGCKLLYKQDFARRLGLRCVTCNYCSQLCKKGATKELDGVVRDFCSEDCCKKFQEWYYKAARCDCCKSQGTLKERVQWRGEMKHFCDQHCLLRFYCQQNEPNMTTQKGPENLHYDQGCQTSRTKMTGSAPPPSPTPNKEMKNKAILCKPLTMTKATYCKPHMQTKSCQTDENWKTEYVPVPIPVPVYVPVPMHMYSQNIPVPTTVPVPVPVPVFLPAPLDSSEKIPATVEDLKSKVSSDPLDSELLTMTDMMTEEEGKAEASNINSVIIETDIIGSDLTKNSDPDIQSNMPDVPYEPDLDIEIDFPRAAEELDMENEFLLPPVFGEEYEEQPRPRSKKKGTKRKAVSGYQSHDDSSDNSECSFPFKYTYGVNAWKHWVKTRQLDEDLLVLDELKSSKSVKLKEDLLSHTTAELNYGLAHFVNEIRRPNGENYAPDSIYYLCLGIQEYLCGSNRKDNIFIDPGYQMFEQELNKILRSWQPSILPDGSIFSRVEEDYLWRIKQLGSHSPVALLNTLFYFNTKYFGLKTVEQHLRLSFGTVFRHWKKNPLTMENKACLRYQVSSLCGTDNEDKIATGKRKHEDDEPVFEQVENTANPSRCPVKMFECYLSKSPQNLNQRMDVFYLQPECSSSTDSPVWYTSTSLDRNTLENMLVRVLLVKDIYDKDNYELDEDTD
For B1, the results for the binding entry in assay [1], in assay [2] and in assay [3] were “no binding”, “binds” and “binds”, respectively.
